{"source": "ChEMBL document CHEMBL4888484", "about": "“Replenishing the malaria drug discovery pipeline: Screening and hit evaluation of the MMV Hit Generation Library 1 (HGL1) against asexual blood stage Plasmodium falciparum ,using a nano luciferase reporter read-out” (2022)", "note": "Out of some 150,000 compounds screened, about 540 (0.36%) showed an effect of 50% or more. The list shows a part of the results."}
{"test_system": "Plasmodium falciparum", "assay": "Primary screen in NF54 nanoGlo assay, in single point, at 2uM, 72h; a lower Z score goes with more inhibition", "type": "functional, Erythrocyte", "details": "timepoint 72 hour", "units": {"% Inhibition": "%"}}
{"compound": "CC(C)n1ccc(NC(=O)NC[C@H]2CCC[C@@H]2O)n1", "% Inhibition": -2, "Z score": 0.32}
{"compound": "Clc1cnc(N2CC[C@H](N3CCCC3)C2)c(Cl)c1", "% Inhibition": -10, "Z score": 1}
{"compound": "Cc1nn(-c2ccccc2)c2sc(C(=O)Nc3nc(-c4cccs4)cs3)cc12", "% Inhibition": 23, "Z score": -2.57}
{"compound": "CCOc1ccccc1NC(=O)Cn1cc(-c2ccccc2)c2ncn(C3CC3)c(=O)c21", "% Inhibition": -1, "Z score": 0.11}
{"compound": "CCCc1nnc(N2CCC3(CCC(=O)N(CCc4ccccn4)C3)CC2)s1", "% Inhibition": 3, "Z score": -0.59}
{"compound": "Cc1nn(CC(=O)N2CCNC(=O)C2)c(=O)n1CCc1ccccc1", "% Inhibition": 3, "Z score": -0.37}
{"compound": "COc1ccc(OCC(=O)N2CC(OCc3ccccc3F)C2)cc1", "% Inhibition": -7, "Z score": 1.12}
{"compound": "CC1(C(=O)Nc2ccc(F)cc2F)CNC1", "% Inhibition": 0, "Z score": 0.03}
{"compound": "CCOC1CC(NC(=O)c2ccc(-c3nnc(C)[nH]3)cc2)C12CCC2", "note": "(centres undefined)", "% Inhibition": 11, "Z score": -1.33}
{"compound": "CC(C)CN(CCC(=O)NC(C)C)c1nc(-c2ccco2)nc2ccccc12", "% Inhibition": -22, "Z score": 3.21}
{"compound": "CCS(=O)(=O)Nc1c(C(F)(F)F)nn(C)c1Cl", "% Inhibition": -3, "Z score": 0.49}
{"compound": "CCOC(=O)C1CCN(CN2C(=O)C3(OCC(C)(c4ccccc4)CO3)c3ccccc32)CC1", "note": "(centres undefined)", "% Inhibition": 8, "Z score": -1.02}
{"compound": "O=C(NCc1cccc(Cl)c1)c1cccn2c(=O)c3ccc(Cl)cc3nc12", "% Inhibition": -11, "Z score": 1.26}
{"compound": "Cc1c(O)cccc1-c1nc([C@@H]2CCN2C(=O)OC(C)(C)C)no1", "% Inhibition": -3, "Z score": 0.47}
{"compound": "O=C(NCc1nccn1CCCc1ccccc1)N1CC2CCC1C2", "note": "(centres undefined)", "% Inhibition": -3, "Z score": 0.28}
{"compound": "Cc1cccc(NC(=O)C2(N(Cc3ccco3)C(=O)Cc3cc4ccccc4[nH]3)CCCCC2)c1", "% Inhibition": 21, "Z score": -2.39}
{"compound": "CO[C@@]12CC[C@@H](NC(C)=O)C[C@@H]1N(C(=O)CN1Cc3ccccc3C1)CC2", "% Inhibition": -5, "Z score": 0.76}
{"compound": "Cc1c(Cl)cccc1CNC(=O)N1CCNC(=O)C1", "% Inhibition": -3, "Z score": 0.46}
{"compound": "COc1ccc(NC(=O)c2ccc3ccccc3c2)cc1S(=O)(=O)N1CCOCC1", "% Inhibition": -8, "Z score": 1.55}
{"compound": "CCC[C@H]1CN(c2nnc(C)s2)C[C@@H]1NC(=O)C1CCOCC1", "% Inhibition": -6, "Z score": 1.17}
{"compound": "Cc1cc(CN2CC[C@H](c3nnc[nH]3)C2)n(C)n1", "% Inhibition": 0, "Z score": -0.03}
{"compound": "O=C(CNc1ccc(Cl)c(Cl)c1)N1CCC(Cc2ccccc2)CC1", "% Inhibition": 15, "Z score": -1.84}
{"compound": "Cc1ccc(F)c(NC(=O)N2CCCC[C@@H]2CCN2CCN(C)CC2)c1", "% Inhibition": -2, "Z score": 0.3}
{"compound": "CC(C)(C)c1cnc(CCC(=O)N[C@H]2CCCCC23CCCC3)o1", "% Inhibition": -13, "Z score": 1.21}
{"compound": "CCOc1cc(-c2nnc(NC(=O)c3cc(C)on3)o2)cc(OCC)c1OCC", "% Inhibition": 3, "Z score": -0.43}
{"compound": "Cc1ncc(C(=O)NC2(C(C)C)CC2)c(=O)[nH]1", "% Inhibition": 2, "Z score": -0.26}
{"compound": "O=C(c1cc(O)nc2ccccc12)N1CCC(c2nc3ccccc3o2)CC1", "% Inhibition": 3, "Z score": -0.42}
{"compound": "CCCn1cc(CN2CCN(CCOC)[C@@H]3CS(=O)(=O)C[C@@H]32)c(C)n1", "% Inhibition": -5, "Z score": 0.99}
{"compound": "COc1cccc(-c2nc3ccccn3c2CN2CCNCC2)c1", "% Inhibition": 9, "Z score": -0.99}
{"compound": "CCOC(=O)c1c(CN(C)C)n(-c2ccc(OC)cc2)c2ccc(Oc3ncccc3C#N)cc12", "% Inhibition": -42, "Z score": 4.94}
{"compound": "Cc1c(CNC[C@@]2(C)CCN(C(=O)OC(C)(C)C)C2)cnn1C", "% Inhibition": 2, "Z score": -0.26}
{"compound": "COC[C@H](NC(=O)NCC(F)F)c1ccc(Cl)cc1", "% Inhibition": -9, "Z score": 1.22}
{"compound": "CCc1cnc(C)nc1N1CCC(NCCOc2ccccc2F)CC1", "% Inhibition": -8, "Z score": 0.74}
{"compound": "O=C(Cc1cc(C2CC2)no1)N1CCCS(=O)(=O)C[C@H]1C1CC1", "% Inhibition": 4, "Z score": -0.73}
{"compound": "COc1cc(-c2nccn2CC2(Cn3ccnc3C)CC2)cc(Cl)c1O", "% Inhibition": -13, "Z score": 2.06}
{"compound": "COc1ccc2c(c1)CCc1c(C(=O)NCCc3nc4ccccc4[nH]3)n[nH]c1-2", "% Inhibition": 2, "Z score": -0.19}
{"compound": "CC(C)[C@H](C)N(Cc1ccco1)C(=O)c1ccc(CCN2CCCC2)nc1", "% Inhibition": -5, "Z score": 1.01}
{"compound": "O[C@H](COc1cccc2c1CCCC2)CN1CCOCC1", "% Inhibition": -9, "Z score": 0.79}
{"compound": "CCn1cc(CN(C)c2ccnc(C(=O)NCc3ccoc3)c2)c(C)n1", "% Inhibition": -1, "Z score": 0.08}
{"compound": "CC(C(=O)NCC1CCCO1)N1CCCCC1Cn1cccn1", "note": "(centres undefined)", "% Inhibition": 2, "Z score": -0.39}
{"compound": "Cc1cc(C)c2c(N)c(-c3nc(-c4ccsc4)no3)sc2n1", "% Inhibition": -24, "Z score": 3.22}
{"compound": "Cc1n[nH]c(C)c1-c1c(-c2ccccc2)ncn1C1CC(C)(C)NC(C)(C)C1", "% Inhibition": 3, "Z score": -0.45}
{"compound": "Cn1c(=O)nc(O)c2c1nc(Br)n2CC(=O)O.Cn1c(=O)nc(O)c2c1nc(N1CCCCC1)n2C[C@H](O)CN1CCCCC1", "% Inhibition": -2, "Z score": 0.2}
{"compound": "C=C(C)CNC(N)=NCc1cccc(C(=O)N2CCCC2)c1", "% Inhibition": 7, "Z score": -1.14}
{"compound": "CCCS(=O)(=O)N1CCC(F)(C(=O)N2CCCC2)CC1", "% Inhibition": -3, "Z score": 0.45}
{"compound": "COc1ccc(NC(=O)[C@]2(C)Oc3cccnc3NC2=O)cc1", "% Inhibition": -4, "Z score": 0.74}
{"compound": "CC(C)(C)c1nc(Cn2ccc(-c3cccc(-c4ncccn4)c3)n2)no1", "% Inhibition": -14, "Z score": 1.3}
{"compound": "N[C@H]1CC[C@H](Nc2ncc(Cl)cc2Cl)C1", "% Inhibition": -1, "Z score": 0.12}
{"compound": "O=C(CCNC(=O)C1CCCC1)NCc1ccccc1Cl", "% Inhibition": -5, "Z score": 0.66}
{"compound": "O=C(Nc1nnc[nH]1)c1cc(S(=O)(=O)N2CCCCC2)ccc1Cl", "% Inhibition": 2, "Z score": -0.3}
{"compound": "COc1cccc(NC(=O)C(C#N)C(=O)CC2CCCO2)c1", "note": "(centres undefined)", "% Inhibition": -19, "Z score": 1.75}
{"compound": "Cc1ccc(NC(=O)c2nnn(-c3ccc(C)c(C)c3)c2-c2cccnc2)c(C)c1", "% Inhibition": -9, "Z score": 0.8}
{"compound": "Cc1csc(C(NS(=O)(=O)CC2CCCS(=O)(=O)C2)C2CC2)n1", "note": "(centres undefined)", "% Inhibition": -5, "Z score": 1.06}
{"compound": "O=C1N(CC2CCC2)CCC[C@@]12CCN(Cc1ccc(F)cc1F)C2", "% Inhibition": -12, "Z score": 1.53}
{"compound": "Cc1ccsc1C(=O)N1CC[S@+]([O-])C(C)(C)C1", "% Inhibition": -7, "Z score": 0.87}
{"compound": "CN(C[C@H]1CCCO1)S(=O)(=O)c1ccc(-c2cc(C(F)(F)F)[nH]n2)o1", "% Inhibition": -1, "Z score": 0.16}
{"compound": "CC1CC1C(NCc1cn2cccnc2n1)c1ccc(Cl)cc1", "note": "(centres undefined)", "% Inhibition": -8, "Z score": 0.77}
{"compound": "O=C(O)[C@H]1CN(C(=O)c2cccc(-c3ncc[nH]3)c2)C[C@@H]1c1cccnc1", "% Inhibition": -16, "Z score": 1.48}
{"compound": "O=C(CCc1nc(-c2ccc(S(=O)(=O)N3CCOCC3)cc2)no1)NC1CCCC1", "% Inhibition": -11, "Z score": 1.26}
{"compound": "CCOc1ncccc1C(=O)NC1(C(=O)OC)CCS(=O)(=O)CC1", "% Inhibition": -2, "Z score": 0.31}
{"compound": "COc1ccc(OCc2cc(C(=O)N3CCCCCCC3)n[nH]2)c(Cl)c1", "% Inhibition": 3, "Z score": -0.4}
{"compound": "COCC(=O)Nc1cc(C(C)C)c(O)cc1C", "% Inhibition": -8, "Z score": 1.06}
{"compound": "CC(=O)N1CCO[C@H](C(=O)Nc2cccc3ccsc23)C1", "% Inhibition": 15, "Z score": -1.86}
{"compound": "Cc1ccc(-c2noc(N3CCO[C@H](c4nc(C)cs4)C3)n2)cc1", "% Inhibition": -9, "Z score": 1.45}
{"compound": "CC1(C)C[C@H](N(Cc2ccccc2)C(=O)c2cc(N3CCOC3=O)ccc2F)C(C)(C)O1", "% Inhibition": 1, "Z score": -0.13}
{"compound": "Cc1cc(Cc2nnc(COc3ccc(C(C)(C)C)cc3)o2)no1", "% Inhibition": -8, "Z score": 1.42}
{"compound": "CC(C)C(=O)Nc1cccnc1-c1ccc([C@H](C)N2CCOCC2)cc1", "% Inhibition": -16, "Z score": 3.24}
{"compound": "CN1CCN(S(=O)(=O)N2CCN(Cc3ccc(-n4cccn4)cc3)CC2)CC1", "% Inhibition": 1, "Z score": -0.1}
{"compound": "Cc1[nH]c2ccccc2c1C1C(CCNC(=O)c2ccc(Cl)cc2)C1(C)C", "note": "(centres undefined)", "% Inhibition": -26, "Z score": 3.03}
{"compound": "O=C(O)c1ccc(OCCN2CC[C@@H]3OCC[C@@H]3C2)c(Cl)c1", "% Inhibition": 8, "Z score": -0.96}
{"compound": "CCc1c(C)nc(-c2cccc(C)c2)nc1N1CCN(C(=O)c2ccc(C)cc2)CC1", "% Inhibition": -6, "Z score": 1.06}
{"compound": "COc1ccccc1N1CCN(C(=O)C[C@H](c2ccc(F)cc2)c2c[nH]c3ccccc23)CC1", "% Inhibition": -4, "Z score": 0.7}
{"compound": "CC1CCN(C(=O)c2ccc(N3CCS(=O)(=O)C[C@@H](C)C3)nc2)CC1", "% Inhibition": 3, "Z score": -0.39}
{"compound": "CC(=O)N[C@H]1C[C@H]2CN(Cc3cccn3C)CC(=O)N2C1", "% Inhibition": -13, "Z score": 1.18}
{"compound": "COc1ccc(CN2CC[C@H]3[C@H](CCC(=O)N3CCc3cccc(F)c3)C2)c(OC)c1OC", "% Inhibition": -4, "Z score": 0.53}
{"compound": "Oc1ccc(Cl)c(CN2C[C@H]3CC[C@@H](C2)[C@H]3O)c1Cl", "% Inhibition": -2, "Z score": 0.22}
{"compound": "COc1ccc(OC)c(NC(=O)N2CC[C@H](N(CCCN3CCCC3)C(=O)C(C)C)C2)c1", "% Inhibition": -2, "Z score": 0.27}
{"compound": "O=C(Nc1ccsc1C(=O)N1CCCCC1)c1cnccn1", "% Inhibition": 37, "Z score": -4.76}
{"compound": "Cc1ccc(-c2nc(-c3ccc(C(=O)N4CCCCC4)s3)no2)cc1", "% Inhibition": -22, "Z score": 2.85}
{"compound": "Cc1cc(C(=O)NCCCNc2cccc(F)c2)no1", "% Inhibition": -1, "Z score": 0.1}
{"compound": "CC(C)C(CNC(=O)N1CC(C(N)=O)O[C@H](C)C1)Cc1ccccc1", "note": "(some centres undefined)", "% Inhibition": 2, "Z score": -0.33}
{"compound": "Cc1ccc(C)c(S(=O)(=O)Nc2cc(C(=O)O)cnc2N(C)C)c1", "% Inhibition": 4, "Z score": -0.7}
